The chains are these.
B1: LINE1-mini (parent)
chain: GGCAGAGCUCAACACAGCGUGGCAAAGUGGCUGUGGCUAGACUGCC

Read counts are not given, so values of variants with three or more changes are uncertain.

Variants of B1 are the subject of this data set. In words: self-cleavage, relative activity (ratio to wild type); higher = more cleavage; in vitro, sequencing; the parent is a self-cleaving ribozyme.
With GGCAGAGCUCAACACAGCGUGGAAAAGUGGCUCUGUCUAGACUGCC, the self-cleavage came to 0.03.

For the variant GGCAGAGCUCAACACAGCGUGGAAAAGUGACUAUGGCUAGACUGCC, the self-cleavage was determined as 0.03.

Take GGCAGAGCUCAACACAGCGUGGGAAAGUGGCUGUGUCUCGACUGCC: the self-cleavage amounted to 0.08.

Turning to GGCAGAGCUCAACACAGCGUGGGAAAGUGGCUGUGUCUUGACUGCC, the self-cleavage is 0.1.

Regarding GGCAGAGCUCAACACAGCGUGGUAAAGUGGCUGUAGCUAGACUACC, the self-cleavage was 0.07.

Turning to GGCAGAGCUCAACACAGCGUGGAAAAGAGGCUGUGGCUAGAUUGCC, the self-cleavage amounted to 0.08.

In the case of GGCAGAGCUCAACACAGCGUGGAAAAGUGGCUGUUGCUGGACUGCC, the self-cleavage came to 0.

With GGCAGAGCUCAACACAGCGUGGUGAAGAGGAUGGGGCUAGACUGCA, the self-cleavage is 0.01.

Consider GGCAGAGCUCAACACAGCGUGGUAAAGUGGCUGUGGCGGUACUGCC, for which the self-cleavage is 0.09.

With GGCAGAGCUCAACACAGCGUGGUAGAGUGGCUGUGACUAGAUGGCC, the self-cleavage is 0.08.

On to GGCAGAGCUCAACACAGCGUGGUAAAGUGGCUCUGGCUAGACUGCG, for which the self-cleavage amounted to 0.06.

As for GGCAGAGCUCAACACAGCGUGGGAAAGUGGGUGUGGCUAGACUACC, the self-cleavage came out at 0.03.

In the case of GGCAGAGCUCAACACAGCGUGGUAAAGAGGCUGUCGCUAGACUGCC, the self-cleavage is 0.15.

With GGCAGAGCUCAACACAGCGUGGUAAAGUGGCUGUGGCUAGACCCAC, the self-cleavage worked out at 0.02.

For GGCAGAGCUCAACACAGCGUGGUAAAGUGGCUGUGGCUAGAAAGCC, the self-cleavage was 0.46.

Consider GGCAGAGCUCAACACAGCGUGGGAAAGGGGCUGUUGGUAGACUGCC, for which the self-cleavage worked out at 0.02.

Turning to GGCAGAGCUCAACACAGCGUGGUAAAGGGGUUGUGGCGAUACUGCC, the self-cleavage came to 0.03.

Take GGCAGAGCUCAACACAGCGUGGGAAUGUGGCUGUGGCUAGCUUGUC: the self-cleavage is 0.03.

GGCAGAGCUCAACACAGCGUGGGAAAGUGGGUGUGGCUAGACUGCG: the self-cleavage was found to be 0.13.

GGCAGAGCUCAACACAGCGUGGCCACGUGGCUGUGCCUAGACCGCC: the self-cleavage worked out at 0.11.

For GGCAGAGCUCAACACAGCGUGGUAAAGUGGCUGUAGCUAAACCGCC, the self-cleavage turned out to be 0.03.

Consider GGCAGAGCUCAACACAGCGUGGUAACGUGGCUAUGGCUAGACUGCG, for which the self-cleavage came to 0.68.

With GGCAGAGCUCAACACAGCGUGGUUAACUGGCUGUGGCUAGACUGCU, the self-cleavage worked out at 0.8.

As to GGCAGAGCUCAACACAGCGUGGAAAAGUUGUUGUGGCUAGACUGCC, the self-cleavage was 0.43.

For the variant GGCAGAGCUCAACACAGCGUGGGAAAGUGGCUGUAGCUAGACUGUC, the self-cleavage was found to be 0.11.

As for GGCAGAGCUCAACACAGCGUGGGAAAGUCGCUGCGUCUACACAUCC, the self-cleavage was 0.01.

GGCAGAGCUCAACACAGCGUGGGGAAGUGGCUGUGGCUUGACUGCC: the self-cleavage turned out to be 0.1.

Take GGCAGAGCUCAACACAGCGUGGUAAGGUGGCUAUGGCUAGACUGCC: the self-cleavage turned out to be 0.08.

Regarding GGCAGAGCUCAACACAGCGUGGAAACGUGGCUCUGGCUAGACUGCC, the self-cleavage came to 0.03.

GGCAGAGCUCAACACAGCGUGGUAAAGUGACUGUGGCUAGAUUGCC: the self-cleavage was 0.13.

As for GGCAGAGCUCAACACAGCGUGGUAAAGUGGCUGUCAUUAGACUGCC, the self-cleavage came out at 0.14.

On to GGCAGAGCUCAACACAGCGUGGUAAAGUCGCGGUGGCUAGACUGCC, for which the self-cleavage was found to be 0.11.

Regarding GGCAGAGCUCAACACAGCGUGGAAAAGUGGCUGUGGCUAGAUUGGC, the self-cleavage is 0.09.

With GGCAGAGCUCAACACAGCGUGGAAAGGUGGCUGUGGCUAUACUGCC, the self-cleavage was found to be 0.09.

With GGCAGAGCUCAACACAGCGUGGAAAAGUGCUUGUGGCUAGACUGCC, the self-cleavage worked out at 0.99.

In the case of GGCAGAGCUCAACACAGCGUGGGCAAGUGGCUGUGGCUAGACUGCG, the self-cleavage came out at 0.25.

As for GGCAGAGCUCAACACAGCGUGGAAUAGUGGCUGUGGUAAGACUAGC, the self-cleavage was 0.04.

Consider GGCAGAGCUCAACACAGCGUGGUAUAGUGGCUGUAGCUAGACAGCC, for which the self-cleavage was found to be 0.07.

As to GGCAGAGCUCAACACAGCGUGGUAAAGUGGCUAUGGCUAGAUUGCC, the self-cleavage is 0.01.

For the variant GGCAGAGCUCAACACAGCGUGGUAAAGUGGCUGUGGCAAGACUCUC, the self-cleavage is 0.06.

As to GGCAGAGCUCAACACAGCGUGGAAAUGUGGCUGGGGCUAGACUGCC, the self-cleavage was found to be 0.23.

With GGCAGAGCUCAACACAGCGUGGGAAAGUGGCUGUGGCAAGACUGCA, the self-cleavage turned out to be 0.17.

For the variant GGCAGAGCUCAACACAGCGUGGUGAAGUGGCUGCCGCCAGACUGCC, the self-cleavage turned out to be 0.

As to GGCAGAGCUCAACACAGCGUGGAAAAGUGGCUGUAGCUAAAGUGCU, the self-cleavage turned out to be 0.01.

For GGCAGAGCUCAACACAGCGUGGGAAGGUGGCUGUGGCUAAACUGCC, the self-cleavage worked out at 0.09.

In the case of GGCAGAGCUCAACACAGCGUGGUAUAGUGGCUGUGGAUAGAUUGCC, the self-cleavage was determined as 0.07.

As to GGCAGAGCUCAACACAGCGUGGUAAACUGGCCCUGGCUAGACUGCC, the self-cleavage is 0.19.

Consider GGCAGAGCUCAACACAGCGUGGGAAAGAGGCUGUUGCUCGACUGCC, for which the self-cleavage was 0.04.

Consider GGCAGAGCUCAACACAGCGUGGGAAGGUGGCUGUGGUUAGGCUGCC, for which the self-cleavage came out at 0.01.

Consider GGCAGAGCUCAACACAGCGUGGAAAAGUGGCUGGGGUUAGACUGCC, for which the self-cleavage was found to be 0.

As to GGCAGAGCUCAACACAGCGUGGAAAAGUGGCUGUCGCUAGCCUGCC, the self-cleavage was determined as 0.06.

For the variant GGCAGAGCUCAACACAGCGUGGAAAAGUGGCUGUGGGUAGACUUCC, the self-cleavage was determined as 0.

For the variant GGCAGAGCUCAACACAGCGUGGUAGAGUGGCUGUGGCUAUCCUGCC, the self-cleavage came to 0.07.

Turning to GGCAGAGCUCAACACAGCGUGGUAAAGUUGCUGUGGCUUGACUCCC, the self-cleavage stood at 0.09.

With GGCAGAGCUCAACACAGCGUGGGAUAGUGGCGGGGGCUAGACUGGC, the self-cleavage worked out at 0.01.

Take GGCAGAGCUCAACACAGCGUGGUGAAGUGGCUGUGGCUAUACUCCG: the self-cleavage was found to be 0.07.

(Values after the RNAGym collection of RNA variant scans (doi:10.7554/elife.90254).)
